Assay [1] deals with T1, human VEGF (human, UniProt P15692-4 27-191, limits assumed).
T1 construct: The bioassay uses 'human VEGF'; also called VEGF165; vascular endothelial growth factor
T1 sequence (looked up): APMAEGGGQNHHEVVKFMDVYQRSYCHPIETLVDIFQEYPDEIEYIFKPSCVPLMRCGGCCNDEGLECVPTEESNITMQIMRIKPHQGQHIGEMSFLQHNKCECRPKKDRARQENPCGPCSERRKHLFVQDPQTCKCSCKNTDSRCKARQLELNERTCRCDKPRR
The assay can be described thus: ELISA of free VEGF in equilibrated mixtures of VEGF and varied VEGF trap; reconstituted lyophilized formulation stored at 5° C., 1 month. As to the method: (§1) The stability of a reconstituted lyophilized formulation was determined over a 6 month period. The pre-lyophilized formulation contained 10 mM histidine, 1.5% PEG 3350, 2.5% sucrose, 0.75% glycine and 50 mg/ml VEGF trap protein. After lyophilization, the reconstituted formulation contained 20 mM histidine, 3% PEG 3350, 5% sucrose, 1.5% glycine, and 100 mg/ml VEGF trap protein (SEQ ID NO:4). Activity was determined in a cell based bioassay which directly measures the ability of the VEGF trap to inhibit the biological effects of human VEGF on a mouse Baf/3 VEGFR1/EpoR cell line. Therefore, this bioassay directly measures the biological activity of the protein. The results are expressed as percent relative potency (test sample IC₅₀/reference VEGF IC₅₀ standard×100). The binding affinity of VEGF to the VEGF trap is measured using a sensitive ELISA that specifically measures free VEGF in equilibrated mixtures containing VEGF and various concentrations of the VEGF trap. Results are expressed as percent relative binding (IC₅₀ of test sample/IC₅₀ of reference×100). Measured pH ranged between 6.3-6.5. All solutions were visually clear. The concentration of VEGF trap recovered was determined with a UV spectrophotometer as mg/ml at A₂₈₀ nm. The percent VEGF trap recovered in the native configuration (main peak purity) was determined with SE-HPLC.
For orientation: An ELISA detects its analyte on a solid surface through an enzyme-linked reagent.

Assay [2] deals with T1, human VEGF. The assay can be described thus: ELISA of free VEGF in equilibrated mixtures of VEGF and varied VEGF trap; reconstituted lyophilized formulation stored at 5° C., 0 months. The protocol:
as §1

Assay [3] deals with T1, human VEGF. The assay can be described thus: ELISA of free VEGF in equilibrated mixtures of VEGF and varied VEGF trap; reconstituted lyophilized formulation stored at 5° C., 1 + 24 hr. As to the method:
as §1

For assay [4], the target named is T1, human VEGF. The assay can be described thus: ELISA of free VEGF in equilibrated mixtures of VEGF and varied VEGF trap; 25 mg/ml liquid formulation stored at 5° C., 0 months. The protocol:
as §1, with “SE-HPLC. […]” for “SE-HPLC.”

Assay [5] concerns the target T1, human VEGF. The assay can be described thus: ELISA of free VEGF in equilibrated mixtures of VEGF and varied VEGF trap; 25 mg/ml liquid formulation stored at 5° C., 9 months. As to the method:
as §1, with “SE-HPLC. […]” for “SE-HPLC.”

Assay [6] concerns the target T1, human VEGF. The assay can be described thus: ELISA of free VEGF in equilibrated mixtures of VEGF and varied VEGF trap; 25 mg/ml liquid formulation stored at 5° C., 24 months. The protocol: as §1, with “SE-HPLC. […]” for “SE-HPLC.”
The target of assay [7] is T1, human VEGF. The assay can be described thus: ELISA of free VEGF in equilibrated mixtures of VEGF and varied VEGF trap; reconstituted lyophilized formulation stored at 5° C., 1 + 4 hr. As to the method: as §1
Assay [8] deals with T1, human VEGF. The assay can be described thus: ELISA of free VEGF in equilibrated mixtures of VEGF and varied VEGF trap; 25 mg/ml liquid formulation stored at 5° C., 36 months. The protocol:
as §1, with “SE-HPLC. […]” for “SE-HPLC.”

The target of assay [9] is T1, human VEGF. The assay can be described thus: ELISA of free VEGF in equilibrated mixtures of VEGF and varied VEGF trap; reconstituted lyophilized formulation stored at 5° C., 3 months. As to the method:
as §1

Assay [10] addresses T1, human VEGF. The assay can be described thus: ELISA of free VEGF in equilibrated mixtures of VEGF and varied VEGF trap; reconstituted lyophilized formulation stored at 5° C., 3 + 24 hr. As to the method: as §1
In assay [11] the target is T1, human VEGF. The assay can be described thus: ELISA of free VEGF in equilibrated mixtures of VEGF and varied VEGF trap; 25 mg/ml liquid formulation stored at 5° C., 18 months. The protocol: as §1, with “SE-HPLC. […]” for “SE-HPLC.”
Assay [12] deals with T1, human VEGF. The assay can be described thus: ELISA of free VEGF in equilibrated mixtures of VEGF and varied VEGF trap; 25 mg/ml liquid formulation stored at 5° C., 6 months. The protocol: as §1, with “SE-HPLC. […]” for “SE-HPLC.”
The target in assay [13] is T1, human VEGF. The assay can be described thus: ELISA of free VEGF in equilibrated mixtures of VEGF and varied VEGF trap; 25 mg/ml liquid formulation stored at 5° C., 12 months. The protocol:
as §1, with “SE-HPLC. […]” for “SE-HPLC.”

For assay [14], the target named is T1, human VEGF. The assay can be described thus: ELISA of free VEGF in equilibrated mixtures of VEGF and varied VEGF trap; 25 mg/ml liquid formulation stored at 5° C., 3 months. The protocol: as §1, with “SE-HPLC. […]” for “SE-HPLC.”
Assay [15] addresses T1, human VEGF. The assay can be described thus: cell-based or functional assay.

Results on one molecule are retold here after US20210393530A1 (Regeneron, published 2021).

B1: VEGF trap (SEQ ID NO:4) (Fc fusion)
chain: SDTGRPFVEMYSEIPEIIHMTEGRELVIPCRVTSPNITVTLKKFPLDTLIPDGKRIIWDSRKGFIISNATYKEIGLLTCEATVNGHLYKTNYLTHRQTNTIIDVVLSPSHGIELSVGEKLVLNCTARTELNVGIDFNWEYPSSKHQHKKLVNRDLKTQSGSEMKKFLSTLTIDGVTRSDQGLYTCAASSGLMTKKNSTFVRVHEK[in this place human IgG1 Fc]
modifications: glycosylated at Asn residues 62, 94, 149, 222 and 308 (told as a specific embodiment)
notes: also called VEGF trap protein; VEGF-specific fusion protein antagonist
Take B1: the “percent relative binding (IC50 of test sample/IC50 of reference×100)” value (shortened to “percent relative binding”) with human VEGF [1] is 74%; with human VEGF [2], 126%; in the assay with human VEGF [3] it was 72%; with human VEGF [4], 72%; with human VEGF [5], 126%; with human VEGF [6], 95%. Also, the “percent relative binding” value with human VEGF [7] was determined as 81%; with human VEGF [8] it was 79%; in the assay with human VEGF [9], 98%; with human VEGF [10], 94%; in the assay with human VEGF [11], 81%; with human VEGF [12], 106%. The “percent relative binding” value with human VEGF [13] came out at 95%; in the assay with human VEGF [14], 88%. In addition, the “Bioassay: percent relative potency (test sample IC50/reference VEGF IC50 standard×100), 0 months, reconstituted lyophilized formulation” value with human VEGF [15] turned out to be 120%. The “Bioassay: percent relative potency (test sample IC50/reference VEGF IC50 standard×100), 1 + 4 hr, reconstituted lyophilized formulation” value in the assay with human VEGF [15] is 94%. Besides, in the assay with human VEGF [15], the “Bioassay: percent relative potency (test sample IC50/reference VEGF IC50 standard×100), 1 + 24 hr, reconstituted lyophilized formulation” value was determined as 126%. The “Bioassay: percent relative potency (test sample IC50/reference VEGF IC50 standard×100), 1 month, reconstituted lyophilized formulation” value with human VEGF [15] came out at 117%. For the same molecule, the “Bioassay: percent relative potency (test sample IC50/reference VEGF IC50 standard×100), 3 + 24 hr, reconstituted lyophilized formulation” value in the assay with human VEGF [15] worked out at 65%. In addition, the “Bioassay: percent relative potency (test sample IC50/reference VEGF IC50 standard×100), 3 months, reconstituted lyophilized formulation” value in the assay with human VEGF [15] amounted to 101%.
